Measured values: article PMC4336329 (PLoS ONE, 2015)
Hit rate of the full screen: of about 310,000 compounds, about 14,000 (4.5%) showed an effect of 50% or more. The effect is printed as a negative number. The list shows a part of the results.

The compounds below were run against human ether-à-go-go-related gene (hERG) potassium channel (human, UniProt Q12809) (assay: primary screen, population patch clamp on CHO cells stably expressing hERG).
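Note: peak tail current of the secondary pulse compared with the same well before compound.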

Sequence of human ether-à-go-go-related gene (hERG) potassium channel (Q12809 whole entry, looked up): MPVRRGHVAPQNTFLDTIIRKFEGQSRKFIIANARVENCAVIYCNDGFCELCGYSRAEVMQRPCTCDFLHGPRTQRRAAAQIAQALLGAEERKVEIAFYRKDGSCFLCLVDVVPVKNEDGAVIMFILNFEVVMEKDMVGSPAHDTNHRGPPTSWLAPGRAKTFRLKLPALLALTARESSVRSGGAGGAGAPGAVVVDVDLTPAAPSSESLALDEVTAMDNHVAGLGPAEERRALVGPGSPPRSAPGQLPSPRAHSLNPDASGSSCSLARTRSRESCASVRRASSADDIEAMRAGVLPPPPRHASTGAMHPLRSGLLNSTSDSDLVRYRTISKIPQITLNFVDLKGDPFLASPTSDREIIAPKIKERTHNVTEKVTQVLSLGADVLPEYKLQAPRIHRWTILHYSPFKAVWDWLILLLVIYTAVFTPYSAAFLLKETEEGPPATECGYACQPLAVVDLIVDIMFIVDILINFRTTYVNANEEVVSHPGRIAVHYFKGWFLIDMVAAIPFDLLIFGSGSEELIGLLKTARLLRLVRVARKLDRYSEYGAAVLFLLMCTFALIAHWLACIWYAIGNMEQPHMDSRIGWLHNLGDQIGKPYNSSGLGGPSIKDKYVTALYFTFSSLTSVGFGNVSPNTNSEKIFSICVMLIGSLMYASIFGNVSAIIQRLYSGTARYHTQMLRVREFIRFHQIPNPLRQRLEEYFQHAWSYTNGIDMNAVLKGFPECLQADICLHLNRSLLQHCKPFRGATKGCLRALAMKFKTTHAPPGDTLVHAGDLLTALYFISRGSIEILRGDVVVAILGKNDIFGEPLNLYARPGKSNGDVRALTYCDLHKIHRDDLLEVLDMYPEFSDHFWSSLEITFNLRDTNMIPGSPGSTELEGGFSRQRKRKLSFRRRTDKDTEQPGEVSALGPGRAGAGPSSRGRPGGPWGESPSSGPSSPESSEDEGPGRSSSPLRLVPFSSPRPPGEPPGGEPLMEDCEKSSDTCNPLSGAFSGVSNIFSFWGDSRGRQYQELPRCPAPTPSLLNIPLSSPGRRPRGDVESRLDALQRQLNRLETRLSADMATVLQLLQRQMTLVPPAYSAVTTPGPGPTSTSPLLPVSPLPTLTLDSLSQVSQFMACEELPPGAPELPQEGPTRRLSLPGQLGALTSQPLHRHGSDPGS

Structure (SMILES)	hERG current change (%, negative = inhibition) at 10uM
CN(C)S(=O)(=O)Oc1ccsc1C(=O)Nc1cccc(Cl)c1Cl	-6.15%
COc1ccc(CCN2C(=O)CS/C2=N\NC(=O)c2cccs2)cc1OC	-8.13%
CC1CCCC(NC(=O)COC(=O)/C=C/c2ccc(S(=O)(=O)N3CCOCC3)cc2)C1C (centres unmarked)	1.54%
CCOc1ccc(C(=O)Nc2ccccc2CC)cc1[N+](=O)[O-]	-21.9%
COC(=O)c1cc(Br)c(=O)n(Cc2ccc(C(=O)O)cc2)c1	15.9%
COc1ccc(CNC(=O)CN(Cc2ccc(OC)cc2)C(=O)CCC(=O)Nc2ccccn2)cc1	-64.4%
COc1ccc(OC)c(N=Cc2c(O)[nH]c3ccccc23)c1	-4.43%
CCCN(CC(=O)NC(=O)NC1CCCCC1)CC(=O)Nc1cc(Cl)ccc1Cl	17.3%
CCOc1cc2c(cc1OCC)C(c1ccc(OC)c(OC)c1)N(c1ccc(C(=O)O)cc1)C(=O)C2 (centres unmarked)	20.3%
CCn1cc(C(=O)O)c(=O)c2cnc(N3CCN(C(=S)Nc4ccccc4Cl)CC3)nc21	-4.66%
COc1ccc(Br)cc1-c1noc(-c2ccncc2)n1	13.7%
CCOC(=O)c1cccc(NC(=O)CSc2nc3ccccc3c(=O)n2CC)c1	15.4%
CC(C)(C)CN1C(=O)C(=O)NC[C@@H]1Cc1ccc(O)cc1	10.8%
COCCN(C(=O)CSc1nc2ccccc2c(=O)n1C(C)COC)c1c(N)n(Cc2ccccc2)c(=O)[nH]c1=O (centres unmarked)	12.3%
CCC(c1nnnn1C(C)(C)C)N(Cc1ccco1)Cc1cc2cccc(C)c2[nH]c1=O (centres unmarked)	-7.84%
OCCC1CN(Cc2cnc(N3CCCC3)s2)CCN1Cc1ccccc1 (centres unmarked)	-0.21%
O=C(NC1CCCCCC1)C1CCN(C(=O)c2ccc(Br)cc2)CC1	4.43%
COc1ccc(N2CCN(C(=O)CNC(=O)Cc3ccc(Cl)cc3)CC2)cc1	-8.38%
COc1ccccc1CNC(=O)C(NC(=O)C1CCCCC1)C(C)C (centres unmarked)	1.84%
O=C1C=C(O)CC(c2ccco2)C1 (centres unmarked)	9.75%
Cc1cccc(Cn2c(N(C)CCO)nc3c2c(=O)[nH]c(=O)n3C)c1	-5.06%
CCOC(=O)C(c1ccccc1)C(Nc1ccc(Cl)c(Cl)c1)c1ccccn1 (centres unmarked)	7.94%

Structure (SMILES)	hERG current change (%, negative = inhibition) at 10uM
CC(C)C(=O)Nc1cccc(C(=O)NCCc2ccc(S(N)(=O)=O)cc2)c1	2.02%
CCN(CC)C(=O)Nc1ccc(Br)cc1	11.9%
Cc1ccc(-c2nnc(N3CCN(C(=O)COc4ccccc4)CC3)c3ccccc23)cc1	-52.1%
Cl.O=C(CN1CCC(NC(=O)c2ccccc2F)CC1)Nc1ccc2c(c1)OCCO2	6.04%
O=C(C1CCN(S(=O)(=O)c2cccc([N+](=O)[O-])c2)CC1)N1CCOCC1	0.701%
O=C(NCC1COCCO1)c1ccc2nc(Cc3cccc(Cl)c3)oc2c1 (centres unmarked)	-0.787%
Cc1ccc(OCn2c(=O)sc3ccccc32)cc1	-0.855%
COc1ccc(OC)c(CNC(=O)C2CCCN(c3nc4ccccc4o3)C2)c1 (centres unmarked)	-14.9%
CC(C)Oc1cccc(C(=O)NC(=S)Nc2ccc3c4c(cccc24)CC3)c1	14.9%
CCC(=O)Nc1sc2c(c1C(N)=O)CCN(Cc1ccccc1)C2.Cl	-53.3%
COc1ccc(CCN(C)c2ccc(S(=O)(=O)N3CCCC3)cc2[N+](=O)[O-])cc1OC	-16.2%
COCCNCCCCOc1ccc(Br)cc1C.O=C(O)C(=O)O	-36.7%
CC(C)Oc1ccc(C(=O)Nc2ccccc2N2CCOCC2)cc1	-36.3%
COc1cc(CN2CCC(n3nccc3NC(=O)CCCc3ccccc3)CC2)ccc1O	-31.1%
CCN(C(=O)C1=COCCO1)c1nc2c(C)cccc2s1	-17.2%
COc1ccc(C(=O)CC(=O)C(=O)Nc2ccc(C)c(Cl)c2)cc1	9.75%
O=C(CN1CC(c2ccccc2)CC1=O)OCc1cccc(Br)c1 (centres unmarked)	-30.1%
Cc1c(C(=O)NNC(=S)Nc2ccc(S(N)(=O)=O)cc2)oc2ccccc12	34.4%
CCCCN(CCCC)S(=O)(=O)c1ccc2oc(C(=O)N3CCOCC3)c(C)c2c1	-10.2%
Cc1ccccc1OCC(=O)N=Nc1c(O)n(C)c2ccccc12	-34.3%
COc1ccc(C(C(=O)NC2CCCC2)N(C(=O)c2ccco2)c2ccc(OC)c(OC)c2)cc1 (centres unmarked)	-3.08%
O=C(NNC(=S)Nc1ccc(Br)cc1Cl)c1ccncc1	36.7%
